# Source: PubChem BioAssay AID504332 (National Center for Advancing Translational Sciences (NCATS), 2011)
# Out of some 350,000 compounds screened, about 31,000 (8.9%) were called active. The inconclusive results got no clear call from the source; some entries with a clear call stand among them for comparison. Calls follow the shape of the dose curve; as a rule, active = well fitted inhibition curve with a large enough effect; inconclusive = small, poorly fitted or top-dose-only effect; inactive = no such curve, though single readings can be large or run the other way. Where the call is inconclusive, the potency comes from a doubtful curve fit.
# Target: Histone-lysine N-methyltransferase EHMT2 (Homo sapiens) (UniProt Q96KQ7)
# Assay: qHTS Assay for Inhibitors of Histone Lysine Methyltransferase G9a; also: nearly all actives have a fitted effect of over 75% in size
# Details: G9a H3K9 monomethylation, AlphaScreen, 2 h; activity, negative = inhibition: at 59 µM (top of the series) unless noted
# Summary of the method: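 Chemiluminescent proximity detection of H3K9 monomethylation, read after 10 min bead incubation in the dark. Reaction: 20 nM G9a, 500 nM biotin-H3K9 peptide, 20 uM SAM cofactor, 2 h, room temperature, following 15 min enzyme-compound preincubation.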
# % is scaled to controls: 0 for no effect and ±100 for the full control effect; potency is read from the fitted curve at half-maximal effect; tags tell the direction and shape of the fitted curve.
# UniProt Q96KQ7, sequence (Q96KQ7 whole entry, looked up): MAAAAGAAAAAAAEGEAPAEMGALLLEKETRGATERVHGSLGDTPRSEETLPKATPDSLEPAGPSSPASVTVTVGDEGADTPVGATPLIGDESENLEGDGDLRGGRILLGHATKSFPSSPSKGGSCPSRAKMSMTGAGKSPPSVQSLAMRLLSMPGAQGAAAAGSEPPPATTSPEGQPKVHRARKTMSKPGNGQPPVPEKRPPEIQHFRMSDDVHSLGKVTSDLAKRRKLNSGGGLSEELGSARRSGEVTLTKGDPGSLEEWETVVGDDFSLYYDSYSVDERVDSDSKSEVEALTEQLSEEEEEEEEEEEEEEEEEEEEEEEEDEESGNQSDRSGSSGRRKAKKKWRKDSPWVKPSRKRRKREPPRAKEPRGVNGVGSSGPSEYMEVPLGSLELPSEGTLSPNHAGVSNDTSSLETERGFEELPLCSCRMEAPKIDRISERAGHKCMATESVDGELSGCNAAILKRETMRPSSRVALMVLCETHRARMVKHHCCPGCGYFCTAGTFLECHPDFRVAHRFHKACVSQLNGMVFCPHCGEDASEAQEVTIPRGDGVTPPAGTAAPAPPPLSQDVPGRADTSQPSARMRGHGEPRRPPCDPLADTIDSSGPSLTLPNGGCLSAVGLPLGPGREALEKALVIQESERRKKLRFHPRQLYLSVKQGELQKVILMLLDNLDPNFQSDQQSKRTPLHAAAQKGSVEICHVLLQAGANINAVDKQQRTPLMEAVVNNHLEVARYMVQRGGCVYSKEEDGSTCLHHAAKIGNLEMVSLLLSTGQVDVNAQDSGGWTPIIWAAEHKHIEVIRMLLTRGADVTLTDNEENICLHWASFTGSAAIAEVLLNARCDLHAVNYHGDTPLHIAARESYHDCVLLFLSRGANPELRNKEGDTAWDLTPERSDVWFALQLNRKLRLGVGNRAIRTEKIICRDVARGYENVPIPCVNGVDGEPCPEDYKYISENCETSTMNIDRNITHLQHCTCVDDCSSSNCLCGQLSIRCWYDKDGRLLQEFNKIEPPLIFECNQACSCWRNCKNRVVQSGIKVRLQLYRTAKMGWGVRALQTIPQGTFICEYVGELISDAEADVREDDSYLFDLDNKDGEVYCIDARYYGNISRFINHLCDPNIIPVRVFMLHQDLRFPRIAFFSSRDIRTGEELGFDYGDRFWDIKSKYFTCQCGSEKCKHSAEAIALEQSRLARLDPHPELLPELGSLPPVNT
SMILES,Potency,"activity, negative = inhibition"
CN1CCN(CCCNC(=O)c2ccc3c(Cl)c4c(nc3c2)CCCC4)CC1,"inconclusive: 89.1 µM [inhibitor, single point]",–
CCc1ccc(Nc2n[n+](-c3ccccc3)c(-c3cccc(C)c3)s2)cc1,–,inactive: 7.61% [at 2.33 µM]
O=C(NCc1ccco1)c1nc2c(nnn2Cc2cccc(Cl)c2)c(=O)[nH]1,–,inactive: -12.6% [at 12.7 µM]
CCCN(CCC)c1ccc(C(O)c2nnc(-c3ccccc3)o2)cc1 (configuration not stated),"inconclusive: 79.4 µM [inhibitor, single point]",–
Cc1sc(NC(=S)NC(=O)CCc2ccccc2)c(C(N)=O)c1C,"inconclusive: 35.5 µM [inhibitor, single point]",–
O=C(C1COc2cc(S(=O)(=O)Nc3ccc(Cl)cc3)ccc2O1)N1CCCC1 (configuration not stated),–,inactive: -36.3%
C/C(=N\NS(=O)(=O)c1ccc(Br)cc1)c1ccc(-n2ccnc2)cc1,"inconclusive: 31.6 µM [inhibitor, single point]",–
Cc1ccc2sc(N(CCCN(C)C)C(=O)CCS(=O)(=O)c3ccccc3)nc2c1C,active: 15.8 µM,–
O=C(N/N=C/c1ccc(O)cc1)NC12CC3CC(CC(C3)C1)C2,"inconclusive: 89.1 µM [inhibitor, single point]",–
O=C(CSc1nnc(NC(=O)c2ccco2)s1)Nc1ccccc1F,"inconclusive: 79.4 µM [inhibitor, partial curve, poor fit]",–
O=C(O)c1ccc2c(c1)C(=O)N([C@@H](Cc1ccc(O)cc1)C(=O)O)C2=O,–,inactive: 7.78% [at 12.7 µM]
CCOC(=O)N1CCN(C(=O)COC(=O)C2CCN(S(=O)(=O)c3c(Cl)cccc3Cl)CC2)CC1,active: 50.1 µM,–
CCCCCCSc1cc(C)nc2ncnn12,"inconclusive: 89.1 µM [inhibitor, partial curve, poor fit]",–
CCOC(=O)c1ccc(N2C(=O)c3n[nH]c(-c4ccco4)c3C2c2cccc(F)c2)cc1 (configuration not stated),"inconclusive: 14.1 µM [inhibitor, partial curve]",–
CCNc1ccc(S(=O)(=O)N(C)C)cc1NCC(=O)Nc1ccccc1F,"inconclusive: 89.1 µM [inhibitor, single point]",–
O=C(Nc1ccc(Cl)cc1)[C@@H]1[C@@H]2C(=O)N(c3ccc4ccccc4c3)C(=O)[C@@H]2[C@H]2C=CC=NN21,active: 3.16 µM,–
O=C(CSc1nnnn1-c1ccc2c(c1)CCC2)Nc1ccc2c(c1)OCCO2,"inconclusive: 44.7 µM [inhibitor, partial curve]",–
Cc1ccc(NC(=O)C2CCN(S(=O)(=O)c3c(C)noc3/C=C/c3ccco3)CC2)nc1,"inconclusive: 25.1 µM [inhibitor, single point]",–
S=C(Nc1ccccc1)N1CCn2c(nc3ccccc32)C1,"inconclusive: 89.1 µM [inhibitor, single point]",–
COc1cccc(/C=C/C(=O)OCC(=O)N2CCN(S(=O)(=O)c3ccc(Cl)cc3)CC2)c1,"inconclusive: 89.1 µM [inhibitor, single point]",–
COc1ccc(CCNc2nc(-c3sc(N)nc3C)cs2)cc1OC,"inconclusive: 1.78 µM [inhibitor, partial curve, poor fit]",–
COC(=O)c1cccc(S(=O)(=O)N2CCOCC2)c1,–,inactive: -8.18% [at 12.7 µM]
COc1cc(/C=C/c2nc3ccccc3c(=O)[nH]2)cc(Br)c1O,"inconclusive: 89.1 µM [inhibitor, single point]",–

SMILES,Potency,"activity, negative = inhibition"
Cc1ccc(O)c(CNc2ccc(S(=O)(=O)Nc3nccs3)cc2)c1,"inconclusive: 70.8 µM [inhibitor, single point]",–
CCOc1ccc2oc(C(=O)N(CCOC)c3c(N)n(CC(C)C)c(=O)[nH]c3=O)c(C)c2c1,–,inactive: -4.18% [at 12.7 µM]
CN(C)S(=O)(=O)N1C(=O)c2ccccc2C1=O,–,inactive: -10.4% [at 2.33 µM]
COc1ccc(C(O)CNc2ccc(C)cc2)cc1 (configuration not stated),–,inactive: -0.389%
CS(=O)(=O)N(CC(=O)N1CCOCC1)c1cc(C(F)(F)F)ccc1Cl,"inconclusive: 89.1 µM [inhibitor, single point]",–
COc1cccc(C2C(C#N)=C(N)SC(c3ccccc3)C2[N+](=O)[O-])c1 (configuration not stated),"inconclusive: 28.2 µM [inhibitor, partial curve, poor fit]",–
CN1C(=O)c2ccccc2Sc2ccc(NC(=O)NCc3ccccc3Br)cc21,"inconclusive: 31.6 µM [inhibitor, partial curve, poor fit]",–
CCOC(=O)/C(C#N)=C/NC(=O)NC(C)(C)C,–,inactive: 4.85%
Cc1ccc(NC(=O)COC(=O)C2C3CC4OC(=O)C2C4C3)cc1Cl (configuration not stated),"inconclusive: 8.91 µM [inhibitor, partial curve, poor fit]",–
CCCn1c(CCC(=O)O)ccc1-c1ccc(OC)cc1,"inconclusive: 20 µM [inhibitor, single point]",–
Cc1ccc(C)c(OCCOCCN2CC(C)OC(C)C2)c1C (configuration not stated),active: 12.6 µM,–
O=C(N/N=C/c1ccc(-c2ccc([N+](=O)[O-])cc2)o1)C(O)c1ccccc1 (configuration not stated),"inconclusive: 89.1 µM [inhibitor, single point]",–
O=C(NCCCN1CCOCC1)/C(=C/c1ccco1)NC(=O)c1ccccc1,"inconclusive: 8.91 µM [inhibitor, partial curve, poor fit]",–
Cc1ccc(-c2csc(N3CCN(c4cc5c(cc4Cl)nc(-c4ccncc4)n5CCOCCO)CC3)n2)cc1,active: 50.1 µM,–
O=C(NCc1cccc(Cl)c1)c1ccc2c(c1)nc1n2CCOC1,–,inactive: -3.23%
COCCNc1nc(NCc2ccccc2)c2cnn(C)c2n1,"inconclusive: 89.1 µM [inhibitor, single point]",–
Cc1[nH]c(=S)[nH]c(=O)c1CCCO,active: 70.8 µM,–
COc1ccc(NC(=O)C2CCCN2C(=O)Oc2ccccc2)cc1 (configuration not stated),–,inactive: 4.58% [at 102 µM]
O=C(NCc1ccccc1)C12CN(Cc3ccccc3)CC1C(c1ccc([N+](=O)[O-])cc1)=NO2 (configuration not stated),"inconclusive: 17.8 µM [inhibitor, single point]",–
CC(C)(C)n1nc2c(c1NC(=O)Cc1cccs1)CSC2,"inconclusive: 89.1 µM [inhibitor, single point]",–
CCOC(=O)N1CCN(S(=O)(=O)c2cc(Br)cc3c2N(C(C)=O)C(C)C3)CC1 (configuration not stated),"inconclusive: 70.8 µM [inhibitor, single point]",–
N#C/C(=C(\O)c1ccco1)c1ccccn1,"inconclusive: 44.7 µM [inhibitor, partial curve]",–
C/C(=N\N(Cc1ccccc1)c1ccccc1)c1cccnc1,"inconclusive: 25.1 µM [inhibitor, partial curve, poor fit]",–

SMILES,Potency,"activity, negative = inhibition"
O=C(Nc1ccc(C(F)(F)F)cc1)c1ccc2ncsc2c1,"inconclusive: 89.1 µM [inhibitor, single point]",–
CCOC(=O)c1cnc2c(C)c(Cl)ccc2c1N1CCN(CC)CC1,"inconclusive: 50.1 µM [inhibitor, partial curve, poor fit]",–
CCN1CCN(C(=S)NC(C)c2ccccc2)CC1 (configuration not stated),"inconclusive: 11.2 µM [inhibitor, partial curve, poor fit]",–
COc1ccc2ccccc2c1CN1CCN(Cc2ccccc2)CC1,"inconclusive: 8.91 µM [inhibitor, partial curve]",–
COc1ccccc1OCC(=O)Nc1ccc(Cl)cc1,"inconclusive: 22.4 µM [inhibitor, single point]",–
CCOc1ccc(-n2c(SCC(=O)Nc3cc(C(=O)O)ccc3Cl)nc3ccccc3c2=O)cc1,"inconclusive: 79.4 µM [inhibitor, single point]",–
COc1ccc(N2CCN(c3ccc(S(=O)(=O)N(C(C)C)C(C)C)cn3)CC2)cc1,"inconclusive: 35.5 µM [inhibitor, partial curve, poor fit]",–
CCC(C)(C)NC(=O)Cc1ccc(OC)c(OC)c1,"inconclusive: 89.1 µM [inhibitor, single point]",–
COc1ccc(N2CCN(C(=O)c3c(C)nn(-c4ccc(F)cc4)c3-n3cccc3)CC2)cc1,"inconclusive: 3.16 µM [inhibitor, full curve]",–
CCc1ccccc1NC(=O)N1CC(CC)Oc2ccc(Cl)cc21 (configuration not stated),–,inactive: 32.5%
NC(=O)c1ccc(NC(=O)c2cccc(Oc3ccccc3)c2)cc1,"inconclusive: 50.1 µM [inhibitor, partial curve]",–
CCN(CCNC(=O)c1cc(C)nn1-c1ccccc1)c1ccccc1,"inconclusive: 25.1 µM [inhibitor, single point]",–
O=C(CSc1ccc([N+](=O)[O-])cn1)Nc1ccc2[nH]c(=O)[nH]c2c1,active: 31.6 µM,–
O=c1c2cn[nH]c2[nH]c(=S)n1-c1ccccc1Cl,active: 44.7 µM,–
COc1cc([N+](=O)[O-])ccc1NC(=O)C1C2C=CC(C2)C1C(=O)O (configuration not stated),–,inactive: -4.46% [at 0.501 µM]
Cc1[nH]nc2c1C(c1ccc(N(C)C)cc1)C1=C(CC(C)(C)CC1=O)N2 (configuration not stated),"inconclusive: 50.1 µM [inhibitor, partial curve, poor fit]",–
O=[N+]([O-])c1ccc(N2CCCCC2)c(Cl)c1N1CCCCC1,"inconclusive: 79.4 µM [inhibitor, single point]",–
COc1ccc2sc(NC(=O)CC(C)C)nc2c1,–,inactive: 16.7%
CCOc1ccccc1NC(=O)c1ccc2c(c1)C(=O)N(CC(C)C)C2=O,–,inactive: 48.2% [at 102 µM]
COc1ccc(NC(=O)CSc2nc3ccccc3n2CC(=O)NCc2ccc(F)cc2)cc1,–,inactive: 18.4%
CCOc1ccc(-n2cc(-c3ccccc3)c3c(=O)[nH]cnc32)cc1,active: 44.7 µM,–
